Results from paper PMC12820563.
The list shows a part of the results. The list includes weakly bound sequences.

Biological target: T1, MBP-FoxP3dN (UniProt Q99JB6)
T1 sequence: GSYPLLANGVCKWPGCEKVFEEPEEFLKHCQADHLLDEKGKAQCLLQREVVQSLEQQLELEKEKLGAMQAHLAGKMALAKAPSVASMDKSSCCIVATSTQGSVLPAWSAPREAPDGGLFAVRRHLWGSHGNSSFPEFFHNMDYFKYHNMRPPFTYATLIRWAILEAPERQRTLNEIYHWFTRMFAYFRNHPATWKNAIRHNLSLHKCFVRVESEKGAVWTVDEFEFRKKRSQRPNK
Experiment: PD-seq (MBP pull-down with sequencing)
Conditions: 20 mM Tris-HCl pH 7.5, 100 mM NaCl, 1.5 mM MgCl2, 0.4 uM protein, 0.1 uM dsDNA library, 30 min, room temperature, amylose pull-down; high values mean tight binding; double strand, one strand shown

Sequence | binding signal (RPM ratio (pull-down/input))
GATGATTGTTCTCCCAGCTGATGAATTTGGGTGATCGAGTAAACAAATTTTCCTAATCTTTCTGTTCAAGCGCCATCTAC | 0.575
GATGATTGTTCTCCCAGCTGATGAATTCAAACCTTCGAGTAAACAAATTTTCCTAATCTTTCTGTTCAAGCGCCATCTAC | 0.284
GATGATTGTTCTCCCAGCTGATGAATTTGCCAGGTCGAGTAAACAAATTTTCCTAATCTTTCTGTTCAAGCGCCATCTAC | 0.375
GATGATTGTTCTCCCAGCTGATGAATTATGGTAATCGAGTAAACAAATTTTCCTAATCTTTCTGTTCAAGCGCCATCTAC | 0.786
GATGATTGTTCTCCCAGCTGATGAATTACAAGACTCGAGTAAACAAATTTTCCTAATCTTTCTGTTCAAGCGCCATCTAC | 0.327
GATGATTGTTCTCCCAGCTGATGAATTAGTGAATTCGAGTAAACAAATTTTCCTAATCTTTCTGTTCAAGCGCCATCTAC | 0.976
GATGATTGTTCTCCCAGCTGATGAATTTCGCCATTCGAGTAAACAAATTTTCCTAATCTTTCTGTTCAAGCGCCATCTAC | 5.04
GATGATTGTTCTCCCAGCTGATGAATTAAAACTATCGAGTAAACAAATTTTCCTAATCTTTCTGTTCAAGCGCCATCTAC | 0.372
GATGATTGTTCTCCCAGCTGATGAATTTGTCCGGTCGAGTAAACAAATTTTCCTAATCTTTCTGTTCAAGCGCCATCTAC | 1.17
GATGATTGTTCTCCCAGCTGATGAATTGAGTTGATCGAGTAAACAAATTTTCCTAATCTTTCTGTTCAAGCGCCATCTAC | 1.81
GATGATTGTTCTCCCAGCTGATGAATTGAACGCTTCGAGTAAACAAATTTTCCTAATCTTTCTGTTCAAGCGCCATCTAC | 0.415
GATGATTGTTCTCCCAGCTGATGAATTGCCACTTTCGAGTAAACAAATTTTCCTAATCTTTCTGTTCAAGCGCCATCTAC | 1.35
GATGATTGTTCTCCCAGCTGATGAATTTAGGGATTCGAGTAAACAAATTTTCCTAATCTTTCTGTTCAAGCGCCATCTAC | 0.588
GATGATTGTTCTCCCAGCTGATGAATTGCTTCAGTCGAGTAAACAAATTTTCCTAATCTTTCTGTTCAAGCGCCATCTAC | 0.407
GATGATTGTTCTCCCAGCTGATGAATTTCTGTCGTCGAGTAAACAAATTTTCCTAATCTTTCTGTTCAAGCGCCATCTAC | 0.35
GATGATTGTTCTCCCAGCTGATGAATTCGCTCGTTCGAGTAAACAAATTTTCCTAATCTTTCTGTTCAAGCGCCATCTAC | 0.348
GATGATTGTTCTCCCAGCTGATGAATTGCGGCTTTCGAGTAAACAAATTTTCCTAATCTTTCTGTTCAAGCGCCATCTAC | 1.98
GATGATTGTTCTCCCAGCTGATGAATTATTACGATCGAGTAAACAAATTTTCCTAATCTTTCTGTTCAAGCGCCATCTAC | 0.354
GATGATTGTTCTCCCAGCTGATGAATTTGACCCTTCGAGTAAACAAATTTTCCTAATCTTTCTGTTCAAGCGCCATCTAC | 0.506
GATGATTGTTCTCCCAGCTGATGAATTCAATATATCGAGTAAACAAATTTTCCTAATCTTTCTGTTCAAGCGCCATCTAC | 0.729

Sequence | binding signal (RPM ratio (pull-down/input))
GATGATTGTTCTCCCAGCTGATGAATTCGCCGTTTCGAGTAAACAAATTTTCCTAATCTTTCTGTTCAAGCGCCATCTAC | 0.658
GATGATTGTTCTCCCAGCTGATGAATTTGATAAATCGAGTAAACAAATTTTCCTAATCTTTCTGTTCAAGCGCCATCTAC | 0.251
GATGATTGTTCTCCCAGCTGATGAATTGGCTTTATCGAGTAAACAAATTTTCCTAATCTTTCTGTTCAAGCGCCATCTAC | 1.2
GATGATTGTTCTCCCAGCTGATGAATTTGACGTCTCGAGTAAACAAATTTTCCTAATCTTTCTGTTCAAGCGCCATCTAC | 1.33
GATGATTGTTCTCCCAGCTGATGAATTGACAGCTTCGAGTAAACAAATTTTCCTAATCTTTCTGTTCAAGCGCCATCTAC | 0.456
GATGATTGTTCTCCCAGCTGATGAATTAGAATTTTCGAGTAAACAAATTTTCCTAATCTTTCTGTTCAAGCGCCATCTAC | 0.488
GATGATTGTTCTCCCAGCTGATGAATTCTTGGCTTCGAGTAAACAAATTTTCCTAATCTTTCTGTTCAAGCGCCATCTAC | 0.275
GATGATTGTTCTCCCAGCTGATGAATTAAAATAGTCGAGTAAACAAATTTTCCTAATCTTTCTGTTCAAGCGCCATCTAC | 0.355
GATGATTGTTCTCCCAGCTGATGAATTCACATTTTCGAGTAAACAAATTTTCCTAATCTTTCTGTTCAAGCGCCATCTAC | 0.391
GATGATTGTTCTCCCAGCTGATGAATTGGGATCGTCGAGTAAACAAATTTTCCTAATCTTTCTGTTCAAGCGCCATCTAC | 0.386
GATGATTGTTCTCCCAGCTGATGAATTGCCACTCTCGAGTAAACAAATTTTCCTAATCTTTCTGTTCAAGCGCCATCTAC | 1.37
GATGATTGTTCTCCCAGCTGATGAATTGTGACTGTCGAGTAAACAAATTTTCCTAATCTTTCTGTTCAAGCGCCATCTAC | 1.45
GATGATTGTTCTCCCAGCTGATGAATTCTGCACTTCGAGTAAACAAATTTTCCTAATCTTTCTGTTCAAGCGCCATCTAC | 1.35
GATGATTGTTCTCCCAGCTGATGAATTGCACTACTCGAGTAAACAAATTTTCCTAATCTTTCTGTTCAAGCGCCATCTAC | 0.92
GATGATTGTTCTCCCAGCTGATGAATTTGTATTGTCGAGTAAACAAATTTTCCTAATCTTTCTGTTCAAGCGCCATCTAC | 6.39
GATGATTGTTCTCCCAGCTGATGAATTCAAACTGTCGAGTAAACAAATTTTCCTAATCTTTCTGTTCAAGCGCCATCTAC | 0.354
GATGATTGTTCTCCCAGCTGATGAATTTATATGATCGAGTAAACAAATTTTCCTAATCTTTCTGTTCAAGCGCCATCTAC | 0.725
GATGATTGTTCTCCCAGCTGATGAATTTCAGCCTTCGAGTAAACAAATTTTCCTAATCTTTCTGTTCAAGCGCCATCTAC | 1.56
GATGATTGTTCTCCCAGCTGATGAATTCTCGTTATCGAGTAAACAAATTTTCCTAATCTTTCTGTTCAAGCGCCATCTAC | 0.573
GATGATTGTTCTCCCAGCTGATGAATTAGCCACTTCGAGTAAACAAATTTTCCTAATCTTTCTGTTCAAGCGCCATCTAC | 1.09
